Measured values reported in patent US11857560B2, “Pharmaceutical compositions comprising substituted nucleotides and nucleosides for treating viral infections” (priority 2013, dated 2024).

Assays:
Assay in all cases: microbe, parasite or virus in culture
Dengue Type 4 = details: Huh-7, read-out: Dengue Type 4 (EC50 uM)
Dengue Type 1 = details: Huh-7, read-out: Dengue Type 1 (EC50 uM)
Dengue Type 3 = details: Huh-7, read-out: Dengue Type 3 (EC50 uM)

SMILES: CC(C)OC(=O)[C@H](C)N[P@](=O)(OC[C@H]1O[C@@H](n2ccc(=O)[nH]c2=S)[C@](C)(O)C1O)Oc1ccccc1 (stereo partly drawn) [ENUC-02023]
- EC50 (Dengue Type 4): 14.2 µM
- EC50 (Dengue Type 1): 1.76 µM
- EC50 (Dengue Type 3): 7.28 µM
